Assay results reported in publication PMC6212790.
The other results are listed elsewhere or left out. At the low end of the ranking, values are background and their order means little.

Molecular target: T1, GST-Rok-C97-191 (UniProt O34857)
T1 sequence: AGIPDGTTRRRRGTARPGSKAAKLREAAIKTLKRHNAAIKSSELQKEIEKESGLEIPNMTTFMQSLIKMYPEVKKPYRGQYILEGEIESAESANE
Assay: protein binding microarray;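 further: rank score from −0.5 (least bound) to 0.5 (best bound)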
Conditions: Rok is a gene silencer of Bacillus subtilis; high values mean tight binding; most listed sequences are background and not binding sites; double strand, one strand shown

Sequence | binding signal [E-score]
GAAGGCAC | -0.194
CGCAGTTA | 0.176
AGCAGCAT | -0.0485
ATAAAAAC | 0.253
ACGCGACC | -0.0671
CGGTAACA | 0.146
GGGTTAAC | -0.176
AAAACACT | 0.0281
AGTATCAA | 0.161
CTAATGAA | 0.0247
TAGTACGA | 0.303
AACGCAGT | -0.231
TCCGTAGA | 0.0606
AAAAGTGC | -0.068
GTGTAAGA | 0.118
ATCTTACA | 0.147
CCCGAGAA | -0.0119
CTCCGGGA | -0.0788
ATTACGAC | 0.256
AAGTTTGT | 0.168
ATCGGTAA | 0.202
CTCAACTC | -0.198
TCGCCAAA | -0.173
ATCCCGGG | -0.186
ACGAGAGT | -0.0523

Sequence | binding signal [E-score]
GAGTGGCA | -0.176
CACACCCA | -0.195
AGTGGGGC | -0.3
CGATGGTA | 0.179
ATTATGCG | 0.0439
ACGGAAGT | -0.0476
AGTTCATG | 0.07
GTGGCTAA | 0.0117
ATTGAGTG | 0.146
GACGCACC | -0.181
AATCCGAA | 0.0539
CAGTCTGA | -0.233
ACCTTTAT | 0.03
AATCCGGA | 0.0521
CACACAAC | 0.034
AACTTTAT | 0.134
CCCTTATC | 0.0243
ACTTGAAT | 0.0478
CGCGGGGC | -0.337
AAGCCCCC | -0.386
TGTAAAAA | 0.34
GTTGTTTA | 0.00836
ACACGCGA | -0.0741
AACTACGC | 0.126
GTGTAGAA | 0.293

Sequence | binding signal [E-score]
GCCTCGTA | -0.16
CCCTCTCA | -0.28
CAGCTCCC | -0.279
GCCGCCAC | -0.0821
AATTTCCA | 0.135
ACCCGCGT | -0.276
GCTTTTTA | 0.118
CCGTTTCA | -0.0867
AATGTCCA | -0.00167
AAGTGTGT | 0.111
TAGACAAA | 0.07
AACCCTAC | 0.172
CCGTGAGG | -0.139
ACGCGTCG | -0.108
CTAACATC | 0.0635
AAAATAAT | 0.26
AACGTTTA | 0.0689
AATGCACT | -0.0309
ACTGGGCC | -0.244
ATGTCGAC | 0.126
CATAATGC | 0.181
TCGCACAA | 0.00373
CACTATCA | 0.175
CTCTGCGC | -0.0737
ACACCCTG | -0.0485

Sequence | binding signal [E-score]
GTCTGCAC | -0.126
GGCCGGCC | -0.261
ACTCACAT | 0.117
TAATCTAA | 0.232
GGGGTAAC | -0.159
CTTTAAAG | -0.0598
CCGGCATC | -0.148
ACATTAAC | 0.203
ATAATTCA | 0.245
AGTGTATC | 0.0994
CATACAAA | 0.219
CTGGAAGC | -0.21
AACACCCG | 0.0543
GCGGCCAA | -0.114
CCTAATAG | 0.0655
CCTAACTC | -0.105
GACCCCGA | -0.269
CATCCCCC | -0.349
CATCCGCG | -0.243
AACAGGCG | -0.0782
ATTCTGCA | 0.122
GAGCTTCC | -0.268
ACATGGTA | 0.196
AGTATCAT | 0.166
CAAAGTTC | 0.0148

Sequence | binding signal [E-score]
GGACTCAC | -0.0112
GTTAAAAC | 0.0593
CGTCTGGA | -0.134
ACTCCTGG | -0.143
CGGTGTAC | -0.129
GTAGGGAA | -0.0201
CAAATGGA | -0.0521
CACGGGCG | -0.167
CAGTATCG | 0.128
GATCGATA | 0.165
ATTCCAGC | -0.192
CAGGCCAA | -0.32
AATTGAGC | -0.109
AGACCGGC | -0.0364
ACATGGGG | -0.107
CTCTATTC | -0.103
GGAACCGA | -0.0576
AATTCTCC | 0.213
ACACGATG | 0.01
ATCCATCG | -0.0764
AGTCCGTG | -0.145
ATGAACAA | 0.0288
AGCCGTAT | -0.146
CGGTCCTC | -0.142
AGTCACGG | -0.237

Sequence | binding signal [E-score]
ATCGTGCC | -0.186
CATAAATA | 0.149
ATAATCGG | 0.072
CCGACCCA | -0.175
CACTAAGC | -0.149
ACAGACCG | -0.107
GATGTTGA | 0.0809
ACTGGAAA | 0.119
GCGCACTA | 0.0427
AATTCCCA | 0.212
GCAGAACC | -0.0545
ACGCGTCT | -0.141
GATCACGC | -0.0269
GGGCTTTA | -0.22
ACAAGCTA | 0.109
CATGGGCC | -0.32
ACGTAGGG | -0.232
TGAAACCA | -0.109
AACATAAC | 0.21
TGTAGGAA | 0.162
CGATTTTC | -0.135
ATAATGCG | 0.3
GGCAGGGA | -0.261
AATTATGT | 0.209
AAGCAAGG | -0.206

Sequence | binding signal [E-score]
CTAATCTA | 0.348
AGTATAAT | 0.289
ACCTGGAC | -0.203
CGGAGGAA | -0.222
AACGAAGA | -0.0492
TCTGCCCA | -0.272
AGACCCAC | -0.0968
CCGGAATA | 0.248
ATTGAGGC | -0.208
AGTTGTAC | 0.245
TCGACAAA | -0.00611
ATGGATAC | 0.0686
TAGTAGCA | 0.316
CTACGGTA | 0.142
GTAGTATA | 0.428
AATATTGG | -0.0277
GCTGTAAA | 0.112
GAGCACGC | -0.0757
AACAAAGG | -0.0348
AGATGCGC | -0.0363
GAAGGGTA | -0.0966
ATACGGAC | 0.0241
